Hit rate of the full screen: of about 110,000 compounds, about 230 (0.21%) showed an effect of 50% or more. Some of the results follow.
What follows are compounds tested against DPAP1 (Plasmodium falciparum, UniProt Q8IIJ9) (assay: primary screen, percent inhibition; read by cleavage of a fluorogenic dipeptide substrate; higher = more effect of the substance).
Design: species or system P. falciparum D10 trophozoite lysates; single well
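Further: 30 min substrate incubation versus DMSO and 10 µM JCP410 controls.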

Chain of DPAP1 (Q8IIJ9 whole entry, looked up): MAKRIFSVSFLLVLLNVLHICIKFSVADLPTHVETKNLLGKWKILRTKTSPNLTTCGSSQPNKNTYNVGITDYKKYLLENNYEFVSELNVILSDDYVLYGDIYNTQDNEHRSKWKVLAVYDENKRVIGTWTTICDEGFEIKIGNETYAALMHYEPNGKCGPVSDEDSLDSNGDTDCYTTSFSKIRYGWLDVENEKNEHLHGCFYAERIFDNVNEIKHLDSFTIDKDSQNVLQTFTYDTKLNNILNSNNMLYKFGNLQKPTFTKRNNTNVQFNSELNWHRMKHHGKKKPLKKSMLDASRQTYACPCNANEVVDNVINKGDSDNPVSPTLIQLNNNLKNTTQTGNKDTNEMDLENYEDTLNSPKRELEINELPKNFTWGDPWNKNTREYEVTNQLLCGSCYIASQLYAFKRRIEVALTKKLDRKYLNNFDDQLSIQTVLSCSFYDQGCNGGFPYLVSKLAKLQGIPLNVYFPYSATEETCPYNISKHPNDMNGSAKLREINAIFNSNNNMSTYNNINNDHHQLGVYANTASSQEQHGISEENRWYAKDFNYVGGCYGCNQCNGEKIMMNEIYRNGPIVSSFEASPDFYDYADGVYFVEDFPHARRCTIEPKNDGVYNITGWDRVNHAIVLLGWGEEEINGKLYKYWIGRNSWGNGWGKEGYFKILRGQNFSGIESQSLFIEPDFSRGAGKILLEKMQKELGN

Row | Compound | % Inhibition @ 10 uM [%]
1 | COc1cccc(-n2c(C)cc(/C=C3\C(=N)N4N=C(S(=O)(=O)CC(C)C)SC4=NC3=O)c2C)c1 | -1.54
2 | Cc1ccc(CNC(=O)CSc2nc3ncccc3o2)cc1 | -8.36
3 | Cc1ccc(C(=O)Nc2c(C)nc3ncnn3c2O)cc1 | 1.86
4 | Cc1nn(C(C)C(=O)NCc2ccccc2)c(=O)c2cc3sccc3n12 (stereo not drawn) | -3.35
5 | CC(Oc1ccccc1)C(=O)Nc1ccc(Cl)c(Cl)c1 (stereo not drawn) | 0.843
6 | CC(C)(NC(=O)[C@H](CS(=O)(=O)Cc1ccccc1OC(F)F)NC(=O)N1CCOCC1)C(=O)c1nnc(-c2cccnc2)o1 | -1.82
7 | O=C1N(c2cccc(C(F)(F)F)c2)C2CS(=O)(=O)CC2N1c1ccc(Cl)c(Cl)c1 (stereo not drawn) | 3.91
8 | CCOc1cccc(Oc2cccc(N)n2)c1 | 5.84
9 | Cc1oc2ccc(O)c(CN3CCOCC3)c2c1C(=O)NC1CCCC1 | 0.486
10 | COc1ccc(S(=O)(=O)N(C)CC(=O)N(Cc2ccccc2)Cc2ccccc2)cc1OC | -2.5
11 | COc1ccc2c(CNCc3ccc4c(c3)OCO4)c(C(=O)O)n(Cc3ccc(F)cc3)c2c1 | -2.1
12 | CC(Cc1ccccc1S(=O)c1ccccc1)N(C)C (stereo not drawn) | 4.3
13 | CCN(CC)S(=O)(=O)c1ccc(NC(=O)c2cccs2)cc1 | -2.68
14 | O=C1c2ccccc2C(=O)N1CCNCCN1C(=O)c2ccccc2C1=O | 10.7
15 | COC(=O)/C=c1\sc2nc(N)nn2c1=O | -2.14
16 | COc1ccccc1CNC(=O)c1c2c(nn1C)-c1ccccc1SC2 | 8.62
17 | CCCCC(=O)N1c2ccccc2C(Nc2ccccc2)CC1C (stereo not drawn) | 4.08
18 | O=C(Nc1cccc(O)c1)c1cccc(S(=O)(=O)N2CCOCC2)c1 | 4.82
19 | Cc1ccsc1C(=O)N1CC(C)CC(C)C1 (stereo not drawn) | 0.727
20 | Cc1ccc(C(=O)Nc2cccc(C(=O)O)c2C)cc1C | 0.83
21 | Cc1onc(-c2ccccc2)c1C(=O)N1CCOCC1 | 0.00784
22 | COc1ccc(C2C(C(=O)c3ccccc3)=C(O)C(=O)N2CO)cc1 (stereo not drawn) | -3.49
23 | CCOC(=O)C(/C=N/c1ccc(Cl)cn1)=C(/O)OCC | 0.0719
24 | CN1CCC(NCCc2ccc(Cl)cc2)CC1 | 3.18
25 | Cc1ccccc1Cn1cc(CCCC(=O)NCc2cccnc2)c2ccccc21 | 0.244
26 | Cc1ccc(NC(=O)c2[nH]cnc2C(=O)Nc2ccc(C)cc2C)cc1 | 1.78

Row | Compound | % Inhibition @ 10 uM [%]
27 | COc1ccc(CNC(=O)C2CCN(S(=O)(=O)c3ccc(-n4cnnn4)cc3)CC2)cc1 | 3.88
28 | c1ccc(CCN2CCC(N3CCCC3)CC2)cc1 | 4.54
29 | O=C(O)c1ccc2c(c1)C(=O)N(c1nccs1)C2=O | -1.74
30 | CCOc1ccccc1CNc1nc2nc(C)c(Cc3ccccc3)c(O)n2n1 | -9.95
31 | COc1ccc(OC)c(S(=O)(=O)NCc2ccc(C)cc2)c1 | 3.89
32 | O=C(C1=C(O)C(=O)N(Cc2ccco2)C1c1cccs1)c1ccc(F)cc1 (stereo not drawn) | -5.83
33 | CC1CN(C(=O)c2ccc3c(c2)OCO3)OC(c2cccnc2)O1 (stereo not drawn) | 0.121
34 | COc1ccc(C(=O)Nc2ccc(NC(=O)c3cccc(C)c3)cc2)cc1 | 1.89
35 | COc1cccc2c1cc1c(=O)n(CC(=O)N3CCC(Cc4ccccc4)CC3)nc(C)n12 | 3.29
36 | CCn1nc(/C=C\c2ccccc2)nc2c(=O)n(C)c(=O)nc1-2 | -1.11
37 | COc1ccc(C2C(C#N)=C(N)Oc3c2c(=O)oc2ccccc32)cc1O (stereo not drawn) | -3.48
38 | COCCNC(=O)c1ccc(Cn2c(SCc3ccc(F)cc3)nc3cccnc32)cc1 | 4.43
39 | c1cncc(CN2CCN(Cc3ccco3)CC2)c1 | -1.44
40 | Cc1cc(NC(=O)C2CCCN(c3ncnc4onc(C)c34)C2)no1 (stereo not drawn) | -5.09
41 | COc1ccc(C2C(C(=O)c3ccccc3)=C(O)C(=O)N2CCNC(C)=O)cc1 (stereo not drawn) | 2.18
42 | O=C(NC1CCOCC1)N1CCN(c2ncccn2)CC1 | 6.92
43 | O=C(Nc1cccc2ccccc12)N1CCN(Cc2ccc3c(c2)OCO3)CC1 | -3.04
44 | Cc1cc(C)c(C2C(C#N)=C(N)OC3=C2C(=O)CC(C)(C)C3)c(C)c1 (stereo not drawn) | 2.62
45 | O=C(C1CCC(CNS(=O)(=O)c2ccc(Br)s2)CC1)N1CCCCCC1 (stereo not drawn) | -0.668
46 | O=C(Cn1ncc2c3ccccc3n(Cc3ccccc3)c2c1=O)NCCc1ccccc1 | -3.35
47 | Cc1ccc2[nH]c(/C(C#N)=C/c3cc(Cl)cc(Cl)c3O)nc2c1 | -4.03
48 | N#CCCN(C1CCCCC1)S(=O)(=O)c1ccc(-c2ccc([N+](=O)[O-])cc2)cc1 | -9.31
49 | OCCNCc1cc(Cl)ccc1OCc1ccc(Cl)cc1Cl | -3.5
50 | O=c1c2c(-c3ccccc3)csc2nc2c3ccccc3c(NCC3CCCO3)nn12 (stereo not drawn) | 5.54
51 | CCOC(=O)c1cc2c(=O)n3ccccc3nc2n(Cc2ccco2)/c1=N/C(=O)c1ccc(C)cc1 | -4.67
